By IC50 is meant the dose at which the fit gives 50% viability; fits outside the tested doses are given as limits. For AUC the same curve is integrated over the 256-fold range of doses and scaled to a fraction; the more sensitive the line, the further below 1. For part of these data: The top dose, if marked as inferred, comes from the curve model; the source does not state it. For part of these data: Drugs with an entry number were screened twice under separate entries, and the two screens often disagree.
Experiments:
Experiment in all cases: Viability of human cancer cell lines after 72 h of drug (GDSC screen)
PLX4720 = compound: CCCS(=O)(=O)Nc1ccc(F)c(C(=O)c2c[nH]c3ncc(Cl)cc23)c1F [PLX4720]; details: top dose 10 µM
Method: (§1)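 Human cancer cell lines in 384-well plates, medium with 10% serum, drug for 72 h over a 256-fold dose range (nine 2-fold or five 4-fold steps up to the top dose). Adherent lines were fixed and stained with the nucleic acid dye Syto60, suspension lines read with resazurin; signal relative to control wells, capped at 0 and 100%. One two-parameter sigmoid per drug and line, fitted in a mixed model over all curves with the slope shared within a line.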

PHA-793887 = compound: CC(C)CC(=O)Nc1n[nH]c2c1CN(C(=O)C1CCN(C)CC1)C2(C)C [PHA-793887]; details: top dose 10.24 µM
Method: as §1

Y-39983 = compound: C[C@@H](N)c1ccc(C(=O)Nc2ccnc3[nH]ccc23)cc1 [Y-39983]; details: top dose 20 µM; top dose inferred
Method: as §1

TPCA-1 = compound: NC(=O)Nc1sc(-c2ccc(F)cc2)cc1C(N)=O [TPCA-1]; details: top dose 20 µM
Method: as §1

[1] = screen: GDSC drug entry 1371, top dose inferred

HCC-366 (non-small cell lung carcinoma, adherent)
AUC (PLX4720; screen: GDSC drug entry 1036): 0.978
IC50 (PLX4720; screen: GDSC drug entry 1036): > 10 µM
AUC (PLX4720; [1]): 0.976
IC50 (PLX4720; [1]): > 10 µM

Hey (ovary, adherent)
AUC (PHA-793887): 0.56
IC50 (PHA-793887): 0.925 µM
AUC (Y-39983): 0.876
IC50 (Y-39983): 17.9 µM
AUC (PLX4720; screen: GDSC drug entry 1036): 0.947
IC50 (PLX4720; screen: GDSC drug entry 1036): > 10 µM
AUC (PLX4720; [1]): 0.957
IC50 (PLX4720; [1]): > 10 µM
AUC (TPCA-1): 0.885
IC50 (TPCA-1): 19.7 µM

IGROV-1 (ovary, adherent)
AUC (PLX4720; screen: GDSC drug entry 1036): 0.94
IC50 (PLX4720; screen: GDSC drug entry 1036): > 10 µM
AUC (PLX4720; [1]): 0.946
IC50 (PLX4720; [1]): > 10 µM

JEKO-1 (B-cell lymphoma, suspension)
AUC (PLX4720; screen: GDSC drug entry 1036): 0.862
IC50 (PLX4720; screen: GDSC drug entry 1036): 7.99 µM
AUC (PLX4720; [1]): 0.93
IC50 (PLX4720; [1]): > 10 µM

JHOS-4 (ovary, adherent)
AUC (PLX4720; screen: GDSC drug entry 1036): 0.978
IC50 (PLX4720; screen: GDSC drug entry 1036): > 10 µM
AUC (PLX4720; [1]): 0.952
IC50 (PLX4720; [1]): > 10 µM

Jurkat (T-cell leukaemia, suspension)
AUC (PLX4720; screen: GDSC drug entry 1036): 0.989
IC50 (PLX4720; screen: GDSC drug entry 1036): > 10 µM
AUC (PLX4720; [1]): 0.968
IC50 (PLX4720; [1]): > 10 µM

KARPAS-1106P (B-cell lymphoma, suspension)
AUC (PLX4720; screen: GDSC drug entry 1036): 0.99
IC50 (PLX4720; screen: GDSC drug entry 1036): > 10 µM
AUC (PLX4720; [1]): 0.991
IC50 (PLX4720; [1]): > 10 µM

KATOIII (stomach, semi-adherent)
AUC (PLX4720; screen: GDSC drug entry 1036): 0.938
IC50 (PLX4720; screen: GDSC drug entry 1036): > 10 µM
AUC (PLX4720; [1]): 0.986
IC50 (PLX4720; [1]): > 10 µM

KNS-62 (lung squamous cell carcinoma, adherent)
AUC (PLX4720; screen: GDSC drug entry 1036): 0.808
IC50 (PLX4720; screen: GDSC drug entry 1036): 8.33 µM
AUC (PLX4720; [1]): 0.886
IC50 (PLX4720; [1]): > 10 µM

MEL-HO (melanoma, adherent)
AUC (PLX4720; screen: GDSC drug entry 1036): 0.434
AUC (PLX4720; [1]): 0.579
IC50 (PLX4720; [1]): 1.03 µM

MHH-CALL-2 (B-cell leukaemia, suspension)
AUC (PLX4720; screen: GDSC drug entry 1036): 0.979
IC50 (PLX4720; screen: GDSC drug entry 1036): > 10 µM
AUC (PLX4720; [1]): 0.997
IC50 (PLX4720; [1]): > 10 µM

MKN7 (stomach, adherent)
AUC (PLX4720; screen: GDSC drug entry 1036): 0.978
IC50 (PLX4720; screen: GDSC drug entry 1036): > 10 µM
AUC (PLX4720; [1]): 0.975
IC50 (PLX4720; [1]): > 10 µM

MM1S (myeloma, suspension)
AUC (PLX4720; screen: GDSC drug entry 1036): 0.987
IC50 (PLX4720; screen: GDSC drug entry 1036): > 10 µM

MOLM-16 (acute myeloid leukaemia, suspension)
AUC (PLX4720; screen: GDSC drug entry 1036): 0.828
IC50 (PLX4720; screen: GDSC drug entry 1036): 5.19 µM
AUC (PLX4720; [1]): 0.944
IC50 (PLX4720; [1]): > 10 µM

MOLT-16 (T-cell lymphoblastic leukaemia, suspension)
AUC (PLX4720; screen: GDSC drug entry 1036): 0.967
IC50 (PLX4720; screen: GDSC drug entry 1036): > 10 µM
AUC (PLX4720; [1]): 0.93
IC50 (PLX4720; [1]): > 10 µM

NCC010 (kidney, adherent)
AUC (PLX4720; screen: GDSC drug entry 1036): 0.974
IC50 (PLX4720; screen: GDSC drug entry 1036): > 10 µM
AUC (PLX4720; [1]): 0.952
IC50 (PLX4720; [1]): > 10 µM

NCI-H146 (small cell lung carcinoma, suspension)
AUC (PLX4720; screen: GDSC drug entry 1036): 0.986
IC50 (PLX4720; screen: GDSC drug entry 1036): > 10 µM
AUC (PLX4720; [1]): 0.993
IC50 (PLX4720; [1]): > 10 µM

NCI-H508 (large intestine, semi-adherent)
AUC (PLX4720; screen: GDSC drug entry 1036): 0.75
IC50 (PLX4720; screen: GDSC drug entry 1036): 5.55 µM
AUC (PLX4720; [1]): 0.953
IC50 (PLX4720; [1]): > 10 µM

NCI-H835 (lung carcinoid, suspension)
AUC (PLX4720; screen: GDSC drug entry 1036): 0.988
IC50 (PLX4720; screen: GDSC drug entry 1036): > 10 µM
AUC (PLX4720; [1]): 0.99
IC50 (PLX4720; [1]): > 10 µM

NCI-H929 (myeloma, suspension)
AUC (PLX4720; screen: GDSC drug entry 1036): 0.964
IC50 (PLX4720; screen: GDSC drug entry 1036): > 10 µM
AUC (PLX4720; [1]): 0.985
IC50 (PLX4720; [1]): > 10 µM

NCI-H1105 (small cell lung carcinoma, suspension)
AUC (PLX4720; screen: GDSC drug entry 1036): 0.993
IC50 (PLX4720; screen: GDSC drug entry 1036): > 10 µM
AUC (PLX4720; [1]): 0.993
IC50 (PLX4720; [1]): > 10 µM

NCI-H1341 (small cell lung carcinoma, suspension)
AUC (PLX4720; screen: GDSC drug entry 1036): 0.989
IC50 (PLX4720; screen: GDSC drug entry 1036): > 10 µM
AUC (PLX4720; [1]): 0.983
IC50 (PLX4720; [1]): > 10 µM

NCI-H2066 (small cell lung carcinoma, adherent)
AUC (PLX4720; screen: GDSC drug entry 1036): 0.975
IC50 (PLX4720; screen: GDSC drug entry 1036): > 10 µM
AUC (PLX4720; [1]): 0.977
IC50 (PLX4720; [1]): > 10 µM

NCI-N87 (stomach, adherent)
AUC (PLX4720; screen: GDSC drug entry 1036): 0.972
IC50 (PLX4720; screen: GDSC drug entry 1036): > 10 µM
AUC (PLX4720; [1]): 0.976
IC50 (PLX4720; [1]): > 10 µM

OCI-LY7 (B-cell lymphoma, suspension)
AUC (PLX4720; screen: GDSC drug entry 1036): 0.819
IC50 (PLX4720; screen: GDSC drug entry 1036): 3.77 µM

PWR-1E (prostate, adherent)
AUC (PLX4720; screen: GDSC drug entry 1036): 0.967
IC50 (PLX4720; screen: GDSC drug entry 1036): > 10 µM
AUC (PLX4720; [1]): 0.986
IC50 (PLX4720; [1]): > 10 µM

RCH-ACV (B-cell leukaemia, suspension)
AUC (PLX4720; screen: GDSC drug entry 1036): 0.96
IC50 (PLX4720; screen: GDSC drug entry 1036): > 10 µM
AUC (PLX4720; [1]): 0.978
IC50 (PLX4720; [1]): > 10 µM

RH-18 (rhabdomyosarcoma, adherent)
AUC (PLX4720; screen: GDSC drug entry 1036): 0.891
IC50 (PLX4720; screen: GDSC drug entry 1036): > 10 µM
AUC (PLX4720; [1]): 0.976
IC50 (PLX4720; [1]): > 10 µM

SK-GT-2 (stomach, adherent)
AUC (PLX4720; screen: GDSC drug entry 1036): 0.942
IC50 (PLX4720; screen: GDSC drug entry 1036): > 10 µM
AUC (PLX4720; [1]): 0.979
IC50 (PLX4720; [1]): > 10 µM

SK-MEL-31 (melanoma, adherent)
AUC (PLX4720; screen: GDSC drug entry 1036): 0.935
IC50 (PLX4720; screen: GDSC drug entry 1036): > 10 µM
AUC (PLX4720; [1]): 0.926
IC50 (PLX4720; [1]): > 10 µM

SNU-175 (large intestine, suspension)
AUC (PHA-793887): 0.468
IC50 (PHA-793887): 0.526 µM
AUC (Y-39983): 0.805
IC50 (Y-39983): 9.39 µM
AUC (TPCA-1): 0.812
IC50 (TPCA-1): 9.87 µM

SUP-B8 (B-cell leukaemia, suspension)
AUC (PLX4720; screen: GDSC drug entry 1036): 0.806
IC50 (PLX4720; screen: GDSC drug entry 1036): 5.01 µM
AUC (PLX4720; [1]): 0.986
IC50 (PLX4720; [1]): > 10 µM

TC-YIK (cervix, suspension)
AUC (PLX4720; screen: GDSC drug entry 1036): 0.97
IC50 (PLX4720; screen: GDSC drug entry 1036): > 10 µM
AUC (PLX4720; [1]): 0.968
IC50 (PLX4720; [1]): > 10 µM

U-266 (myeloma, semi-adherent)
AUC (PLX4720; screen: GDSC drug entry 1036): 0.964
IC50 (PLX4720; screen: GDSC drug entry 1036): > 10 µM
AUC (PLX4720; [1]): 0.973
IC50 (PLX4720; [1]): > 10 µM

VMRC-LCD (lung adenocarcinoma, adherent)
AUC (PLX4720; screen: GDSC drug entry 1036): 0.993
IC50 (PLX4720; screen: GDSC drug entry 1036): > 10 µM
AUC (PLX4720; [1]): 0.969
IC50 (PLX4720; [1]): > 10 µM

YMB-1-E (breast, adherent)
AUC (PHA-793887): 0.853
IC50 (PHA-793887): > 10.2 µM
AUC (Y-39983): 0.969
IC50 (Y-39983): > 20 µM
AUC (TPCA-1): 0.981
IC50 (TPCA-1): > 20 µM

ZR-75-30 (breast, adherent)
AUC (PLX4720; screen: GDSC drug entry 1036): 0.983
IC50 (PLX4720; screen: GDSC drug entry 1036): > 10 µM
AUC (PLX4720; [1]): 0.979
IC50 (PLX4720; [1]): > 10 µM

— the supplement of paper PMC4967469
